Measurements from the supplement of paper PMC10126150.
Values marked as one replicate rest on one cluster of the flow cell; about a third of the high ones do not repeat.

Test system: ATP
Assay: switch fluorescence ratio, 500 uM ATP over buffer (Cy3 cluster intensity, sum of 5 cycles each) (fold (ratio)); higher = stronger signal-on switching upon ATP binding; sequences stand for … in TCGTCGGCAGCGTCAGATGTGTATAAGAGACAGTTTTTTTTTTTTTTTTTTTTTTTTT…TC
Details: aptamer strand: ATP DNA aptamer (quencher-CACCTGGGGGAGTATTGCGGAGGAAGG + anchor), 100 nM annealed; ATP concentration: 500 uM; one replicate
Procedure, shortened: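 Switching-strand clusters labelled with Cy3 on a modified Illumina MiSeq flow-cell were annealed to 100 nM quencher-labelled ATP aptamer, imaged in selection buffer, and re-imaged after 15 min with 500 uM ATP at 22 °C. This was done over five cycles with NaOH stripping and re-annealing in between. The fluorescence ratio is summed target-cycle over summed buffer-cycle Cy3 intensity per cluster, averaged per switch-domain sequence, excluding clusters outside 100-1000 RFU.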
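Further: ATP exposure 15 min at 22 °C before imaging.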

Sequence | switch fluorescence ratio
GTAGATCCGG | 1.02
GACTGGTGCG | 1.02
GATTCCGGTT | 1.07
ATGTACGCAT | 1.12
CAATTGGATT | 1.03
GTTGGTTCCC | 0.985
AAATGATTAC | 1.08
ATTCCATCTG | 1.01
CGTTTCTTCT | 0.981
AAACACAGAT | 1.01
CGCGCTAGTA | 1.02
ACTGACATTC | 1.15
TTTGCCTGGC | 1.04
AGGTACTTAT | 1.06
CACTAGGTTC | 1.04
AGTCGAGGTC | 1.02
CGGCATATTT | 1.04
TCCTGTTCCA | 0.998
ATTGGCCGGA | 1.02
ATCAGGCCAG | 1.07
CTGAGACGAC | 0.987
TGGAACTCAT | 1.01
GCAGCGTGCA | 1.03

Sequence | switch fluorescence ratio
TAAGCGCATA | 1.18
TTGTTGTTCT | 0.989
CCATTAGAAG | 1.01
CAAAGAGAAG | 0.986
TGACAAGTCA | 0.997
TCGTACTGTT | 0.997
ATACTGAATG | 0.983
GAAGTCTTGG | 0.964
AACAGGCGCC | 1.02
GCGAGTCTAT | 1.06
TGGGCACG | 1.04
GGACGTGGTG | 0.961
CTGTGGTGCG | 0.958
AAGCGGAGTG | 1.16
TCCGTTAAAG | 1.09
TCTTTAGATC | 0.986
GCAGCGGAAT | 1.06
AGTTAAACGG | 1.01
CGTGTCTTAT | 0.982
CTCCACAGCC | 3.72
TTTCCCAGAC | 1.13
GACTTGGCAT | 1.03
TATTGTCAAG | 1.01

Sequence | switch fluorescence ratio
AAACGGATTT | 1.13
GGCTGAGCCA | 1.01
GGTTTTCTGC | 0.973
CGCGGCCGGT | 1.02
CGTCATCAAT | 1.49
TAGAGTGTGC | 0.989
GAGCCAAATG | 0.978
AACGCCTGGG | 1.03
TCCGGACTGG | 0.979
CTGGGACGAG | 0.997
CTGAGAACAT | 1.02
CGGGCCATCT | 1.06
GATTAAGAGA | 0.957
ATGAATGG | 1.02
TCGACTGGTA | 0.992
TATGGTAGAT | 0.984
ACCTTTGACA | 1.11
AATATTGGCC | 1.06
GGCGTTTTAT | 0.993
TCAATCAACT | 1
AGGGGCATCA | 0.976
AATCATTACT | 1.04
ACGATAATTG | 1.05

Sequence | switch fluorescence ratio
TTCGTGCGGG | 0.983
TGGATTCCCG | 1.02
CTACTTGCGG | 1.02
CACGCCTGGT | 1.06
GGACACTTTG | 1.05
TTCGTAGCAT | 4.14
AGGAATGAG | 1.01
CATCTCCGAG | 1.17
AAAGTAGTAT | 0.993
GAAGTACAGA | 1.25
CCCACAGTT | 2.46
GTTTGCTTGG | 0.999
AGGCGATGGT | 1.02
TCGAGAACAA | 1.01
AGCCGTTG | 1.02
GTCAGTCATT | 0.981
ACGGTGGATT | 0.993
GGGTAAGTCG | 0.998
TGTTCTCGT | 0.947
TCAAAGGAAT | 1.03
GCTGGATGAT | 1.01
AGGCAGTCCC | 0.987
TTGTCAGCT | 0.986

Sequence | switch fluorescence ratio
AGTCTAGAAG | 0.963
ATCTGAAGTA | 0.969
CGTTGATAG | 0.942
GGCTCACTTT | 1.02
TTTAGCATGA | 1.08
GATATATTC | 1
ACTAGGCATT | 0.929
TCTGGGTTTC | 1.06
CCGCGGTTA | 1.38
ATGGGGAGGG | 1.03
AAGAGCGCAG | 1.03
TGGAATCAAC | 1.01
ATTGCTATAG | 1.04
GCCGAGCAGC | 1.22
GATGGCTGGC | 1.14
AGCACGCGAA | 1.07
TGTTGTCGCA | 1
GGTGGGGTCA | 1.02
TCTGTCGATT | 1.03
AATGGCAAAG | 1.03
TACATGATGT | 0.978
CAGGATCCTG | 1.01
GGACTACAAT | 0.979

Sequence | switch fluorescence ratio
CCCGGATCGT | 1
TTCTTTGTAC | 0.991
TTGATACGGG | 1.03
GCCTGGTGCG | 1.05
TTCTGATGTT | 0.985
GGTGACCATT | 0.986
AACCTGGGTT | 0.983
TACAAGCGCA | 1.06
AGCTGAGGG | 0.977
GTTAGGACGT | 1.01
CCGGACCGGG | 1.04
TAGCACACGG | 1.12
ACCCGGTGGG | 0.985
ATCAACGGCT | 1.06
GATTGTGTCA | 1
GCTGTATCTC | 1.02
ACCATGGGGA | 0.97
CAACGCGAAT | 3.65
TACGGTTAA | 1.14
AATCTGTTAA | 1.02
ACGTCATGCT | 1.1
GTGAAACATT | 0.97
CTTTGATGAC | 0.986

Sequence | switch fluorescence ratio
CACCAAAATC | 1.4
TCTGTTGTTA | 0.955
ACTCGTCTAT | 1.02
TGACTCGTGA | 1.04
TAATTCTATT | 0.944
CGGAGGGAGC | 1.02
GAGTTTGTAC | 1
CAGGTTATTA | 0.952
GCCAACGCTA | 2.12
TGGAGTTATG | 1.01
CAAAGCATCG | 0.998
TGAAGTGAGC | 1.09
TATTAGATTG | 1
GGAGATAACG | 0.981
TTTTTACT | 0.959
CTAGTGCGAC | 1.06
GTATAAAGTG | 0.971
TTTACGTTAC | 1.81
GCGCTTGCGG | 1.02
